Source: patent US20120189670A1, “PHARMACEUTICAL COMPOSITIONS AND FORMULATIONS INCLUDING INHIBITORS OF THE PLECKSTRIN HOMOLOGY DOMAIN AND METHODS FOR USING SAME” (priority 2009, published 2012)
Converted amounts (≈) assume the structure as drawn. Read-outs that look alike come from different tables or passages of the source.

Legend:
PC3 prostate cancer = experiment: Antitumor activity, oral gavage, PC3 xenograft; type: in vivo, mouse; conditions: PC3, 125 mg/kg BID × 5 D oral
A549 nsc lung cancer = experiment: Antitumor activity, oral gavage, A549 xenograft; type: in vivo, mouse; conditions: A549, 200 mg/kg BID × 10 D oral
[1] = system: Panc-1 pancreatic cell line; experiment: Apoptosis, morphological assay, Panc-1; type: cell-based, human; conditions: Panc-1, 20 μmol/L
Description: AKT inhibition leads to cellular apoptosis.

HaCaT cells = experiment: Apoptosis (PARP cleavage) in HaCaT cells; type: cell-based, human; conditions: 10 μM
Description: (§1) […]. […] […].

Excipient solubility = type: physicochemical; conditions: thermodynamic from solid
Protocol: The solutions were rotated at room temperature for 24 hours. After rotation, if there was no evidence of precipitated compound, additional compound 104 was added and dissolution processes were repeated. […] The low solubilities found in the various plant based oils tested (avocado, vitamin E, soybean, sesame and safflower) were unexpected. the long hydrocarbon chain present in compound 104 would be expected to render it similar in polarity to the variety of nonpolar hydrocarbons present in plant based oils. […] HPLC Assay. […] The run time was 5 minutes and the injection volume was 2 μL.

PH domain of PDK1 [2] = target: T1, PH domain of PDK1 (Homo sapiens, UniProt O15530); experiment: SPR direct binding, KD, PDK1 PH domain
T1 sequence (O15530 459-550 limits assumed): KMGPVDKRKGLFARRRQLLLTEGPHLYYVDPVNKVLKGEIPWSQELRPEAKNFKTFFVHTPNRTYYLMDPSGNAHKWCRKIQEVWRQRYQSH
Protocol: Binding assays using SPR and an ELISA competitive binding assay were used to measure the binding affinity (KD) of the compounds to all three PH domains. SPR was carried out as described above. […] Purified GST-PH domains were incubated with increasing concentrations of the compounds under analysis for about 4 hours in 0.2 M carbonate buffer pH 9.4 and were added to the 96-well plate and incubated overnight at 4° C. Following incubation, the plate was washed 4 times with phosphate buffered 0.9% NaCl (PBS), blocked with 3% bovine serum albumin (BSA) in PBS and 0.01% Tween for 1 hour, washed again 4 times with PBS and mouse monoclonal anti-glutathione-S-transferase antibody in 3% BSA (1:2000) was added for 1 hr at room temperature with shaking. The plate was washed 4 times with PBS and an anti-mouse IgG horseradish peroxidase coupled antibody (dilution 1:2000 in 3% BSA) was added for 1 hr. After 4 washes with PBS, 2,2′-azinobis[3-ethylbenzothiazoline-6-sulfonic acid]-diammonium salt (ABST) was added and the reaction was allowed to develop for 30 min.

HaCat-II,4 cells = experiment: Apoptosis (PARP cleavage) in HaCaT-II,4 cells; type: cell-based, human; conditions: 10 μM
Description: as §1

[3] = for degradation in Vehicle #3: 20 mg/mL
PH domain of PDK1 [4] = target: T1, PH domain of PDK1; experiment: SPR competitive binding, Ki, PDK1 PH domain

For `CCCCCCCCCCCCc1ccc(S(=O)(=O)Nc2nncs2)cc1` [Compound 104, 4-Dodecyl-N-(1,3,4-thiadiazol-2-yl)benzenesulfonamide], the Growth rate (PC3 prostate cancer) was 470 ± 121 mm^3/10 days, the Growth rate (A549 nsc lung cancer) was 182 ± 47 mm^3/10 days and the “Apoptosis at 20 μmol/L” value [1] was 40.0 ± 2.9/ %. The apoptosis (HaCaT cells) was 80%, the solubility at 24 h (Excipient solubility; oil or lipid, in Acconon MC-8 EP/NF) was 83700 µg/mL (≈ 204 mM) and the solubility at 24 h (Excipient solubility; oil or lipid, in Aquaphor) was under 10 µg/mL. The solubility at 24 h (Excipient solubility; oil or lipid, in Avocado Oil/Vitamin E Oil (50/50) by % volume) was 1400 µg/mL (≈ 3.42 mM), the solubility at 24 h (Excipient solubility; oil or lipid, in Capmul MCM L) was 5300 µg/mL (≈ 12.9 mM) and the solubility at 24 h (Excipient solubility; oil or lipid, in Captex 200P) was 6800 µg/mL (≈ 16.6 mM). It also gave a solubility at 24 h (Excipient solubility; oil or lipid, in Captex 355 EP/NP) of 4700 µg/mL (≈ 11.5 mM), a solubility at 24 h (Excipient solubility; oil or lipid, in Captex 810 D) of 2400 µg/mL (≈ 5.86 mM) and a solubility at 24 h (Excipient solubility; oil or lipid, in Gelucire 44/14) of 35200 µg/mL (≈ 85.9 mM). For the same molecule, the solubility at 24 h (Excipient solubility; oil or lipid, in Labrafil) was 10400 µg/mL (≈ 25.4 mM), the solubility at 24 h (Excipient solubility; oil or lipid, in Labrasol) was 53200 µg/mL (≈ 130 mM) and the solubility at 24 h (Excipient solubility; oil or lipid, in Mineral Oil) was under 10 µg/mL. For the same molecule, the solubility at 24 h (Excipient solubility; oil or lipid, in Safflower Oil) was 1100 µg/mL (≈ 2.69 mM), the solubility at 24 h (Excipient solubility; oil or lipid, in Sesame Oil) was 1200 µg/mL (≈ 2.93 mM) and the solubility at 24 h (Excipient solubility; oil or lipid, in Soybean Oil) was 1100 µg/mL (≈ 2.69 mM). For the same molecule, the solubility at 24 h (Excipient solubility; organic solvent or mixture, in Acetone) was 74000 µg/mL (≈ 181 mM), the solubility at 24 h (Excipient solubility; organic solvent or mixture, in Benzyl Alcohol) was 78100 µg/mL (≈ 191 mM) and the solubility at 24 h (Excipient solubility; organic solvent or mixture, in Dimethylacetamide (DMA)) was 87400 µg/mL (≈ 213 mM). The solubility at 24 h (Excipient solubility; organic solvent or mixture, in Glycerol) was 10 µg/mL (≈ 0.0244 mM), the solubility at 24 h (Excipient solubility; organic solvent or mixture, in N-methylpyrrolidone (NMP)) was 161000 µg/mL (≈ 393 mM) and the solubility at 24 h (Excipient solubility; in Water) was under 1 µg/mL. The Kd (PH domain of PDK1 [2]) was 90.1 µM, the apoptosis (HaCat-II,4 cells) was 60% and the “degradation in Vehicle #3” value ([3]; 4° C., 56 day period) was “No significant degradation”. The “degradation in Vehicle #3” value ([3]; 25° C., 56 day period) was “No significant degradation”, the “degradation in Vehicle #3” value ([3]; 40° C., between 28 and 42 days) was “significant degradation” and the shelf life ([3]; Vehicle #3, room temperature (25° C.), extrapolated Arrhenius plot) was 2.4 years. For the same molecule, the Ki (PH domain of PDK1 [4]) was 5.5 µM.
